≈ marks a conversion by molar mass, not a printed value. Like-named read-outs stand apart in the source and are kept apart here.
Tested on: B. subtilis CPZEN-45-resistant strain (tagO T728G, Ile243Ser)

Compound: CCCCc1ccc(NC(=O)C2=CCN(C)[C@@H]([C@H](O[C@@H]3O[C@H](CN)C(O)C3O)[C@H]3O[C@@H](n4ccc(=O)[nH]c4=O)C(O)C3O)C(=O)N2C)cc1 (stereo partly drawn) [CPZEN-45]
- MIC (Bacillus subtilis, 16 h): > 128 µg/mL

Compound: tunicamycin [reference compound]
- MIC (B. subtilis CPZEN-45-resistant strain (tagO T728G), microbroth dilution, LB medium, 37° C., 16 hours): 1 µg/mL

Compound: CN[C@H](CC(C)C)C(=O)N[C@H]1C(=O)N[C@@H](CC(N)=O)C(=O)N[C@H]2C(=O)N[C@H]3C(=O)N[C@H](C(=O)N[C@H](C(=O)O)c4cc(O)cc(O)c4-c4cc3ccc4O)[C@H](O)c3ccc(c(Cl)c3)Oc3cc2cc(c3O[C@@H]2O[C@H](CO)[C@@H](O)[C@H](O)[C@H]2O[C@H]2C[C@](C)(N)[C@H](O)[C@H](C)O2)Oc2ccc(cc2Cl)[C@H]1O [vancomycin, reference compound]
- MIC (Bacillus subtilis, 16 h): 0.5 µg/mL (≈ 0.345 µM)

Source: US9839648B2, “Combined anti-acid-fast bacterial agent, screening method for anti-acid-fast bacterial agents, and activity inhibitor of WecA or ortholog thereof” (MICROBIAL CHEMISTRY RESEARCH FOUNDATION, priority 2013, dated 2017)
